These are literature values, as cited in patent publication US20240156960A1 (priority 2020, published 2024).

One data set concerns SARS-CoV2. Particulars: Protein + Epitope: S; literature source.
Data set [1] relates to coronavirus named in the cell (SARS-CoV2, SARS-CoV1), S protein.

B1: C004 (antibody, listed as Homo sapiens, V domains shown)
VH: [about 100 residues cut from this listing]PASRGYSGYDHGYYYYMDVWGKGTTVTVSS
VL: AIRMTQSPSSLSASVGDRVTITCQASQDISNYLNWYQQKPGKAPKLLIYDASNLETGVPSRFSGSGSGTDFTFTISSLQPEDIATYYCQQYDNLPITFGQGTRLEIK
Regarding B1, the “Not Neutralising Vs” value in the data set on SARS-CoV1 is listed as “SARS-CoV1”. Besides, the “Binds to” value with SARS-CoV2 was “SARS-CoV2”.

B2: 8D9 (antibody, listed as Homo sapiens, V domains shown)
VH: EVQLLESGGGLVQPGGSLRLSCTASGFTFSSYWMSWVRQAPGKGLEWVANIQQDGSEKYYVDSVKGRFTISRDNAKNSLYLQMNSLRAEDTAVYYCARPTIGYSYGSDYWGQGTTVTVSS
VL: [about 100 residues cut from this listing]
Turning to B2, the “Binds to” value in data set [1] is “SARS-CoV2”.

B3: C010 (antibody, listed as Homo sapiens, V domains shown)
VH: EVQLVESGGGVVQPGRSLRLSCAASGFTFSSYAMHWVRQAPAKGLEWVAVILYDGSGKYYADSVKGRFTISRDNSKNTLYLQMNSLRAEDTAVYYCARDGIVDTALVTWFDYWGQGTLVTVSS
VL: [about 100 residues cut from this listing]PWTFGQGTKVEIK
B3: the “Not Neutralising Vs” value in the data set on SARS-CoV1 is “SARS-CoV1,”. Also, the “Binds to” value in the data set on SARS-CoV2 was “SARS-CoV2”.

B4: C009 (antibody, listed as Homo sapiens, V domains shown)
VH: [about 100 residues cut from this listing]DSPFSALGASNDYWGQGTLVTVSS
VL: QSALTQPPSASGSPGQSVTISCTGTSSDVGGYNYVSWYQQHPGKAPKLMIYEVSKRPSGVPDRFSGSKSGNTASLTVSGLQAEDEAEYYCSSDAGSNNVVFGGGTKLTVL
On to B4, for which the “Not Neutralising Vs” value with SARS-CoV1 is “SARS-CoV1”. For the same molecule, the “Binds to” value in the data set on SARS-CoV2 is “SARS-CoV2”.

B5: C008 (antibody, listed as Homo sapiens, V domains shown)
VH: EVQLVESGGGVVQPGRSLRLSCAASGFTFSSYGMHWVRQAPGKGLEWVTVISYDGRNKYYADSVKGRFTISRDNSKNTLYLQMNSLRAEDTAVYYCAREFGDPEWYFDYWGQGTLVTVSS
VL: [about 100 residues cut from this listing]TFGQGTKVEIK
For the molecule B5, in the data set with SARS-CoV1, the “Not Neutralising Vs” value is “SARS-CoV1”. Further, in the data set on SARS-CoV2, the “Binds to” value is “SARS-CoV2”.
